# Measurements as given in the supplement of paper PMC3334620.
# Over roughly 33,000 sequences, “E-score (-0.5 to 0.5)” has its median near -0.016; the highest 2% begin near 0.31. The list shows a part of the results.
# Biological target: Cst6 (UniProt P40535)
# Assay: PBM E-score (8-mer binding enrichment) (E-score (-0.5 to 0.5)); higher = stronger / more preferred TF binding; most listed sequences are background and not binding sites
# Conditions: protein concentration: 200 nM; construct: GST-DNA-binding domain
# Experimental: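 Universal 'all 10-mer' protein binding microarrays (Agilent AMADID 015681) probed with GST-tagged S. cerevisiae TFs (full-length or DBD) made by in vitro transcription/translation (PURExpress), about 100-200 nM. Bound TF was detected with fluorescent anti-GST. Each ungapped 8-mer (which stands for itself and its reverse complement) is scored by the PBM enrichment score (E-score), a modified Wilcoxon-Mann-Whitney statistic from -0.5 to +0.5, computed with the Universal PBM Analysis Suite. Scale: above 0.35 generally sequence-specific binding.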
row,Sequence,PBM E-score
1,CGCGATTC,0.125
2,AGATCACC,0.0858
3,AGCACTGG,-0.144
4,CCACTGAG,-0.214
5,GATCCAAA,0.169
6,TACTACTA,0.131
7,AGCTCACC,-0.211
8,AGTCCGAG,-0.226
9,ACAACCAT,0.325
10,GTAATTGA,0.287
11,GATTTACC,0.103
12,CTAGCTAC,-0.112
13,ATGGCAAT,0.101
14,GACCGGGA,-0.305
15,AATGTCCA,-0.124
16,CAAATTCA,-0.0122
17,AACAAGCT,-0.115
18,GTTTGGGA,0.0263
19,ACACCACT,0.0996
20,CCACCCGC,-0.192
21,GATTCAAA,0.116
22,CATCCCAC,-0.0267

row,Sequence,PBM E-score
1,ACTAATGG,0.0198
2,GATAGTGC,-0.134
3,CGGCGCCA,0.161
4,ACGCCCCG,0.0241
5,CCTGACAC,0.029
6,CAGAGCCG,0.138
7,ATACCTAG,-0.0999
8,AAGAGGAG,-0.301
9,AGTGTGTA,0.0987
10,GAGTTATC,0.0366
11,CACCTTTA,-0.00154
12,GATATACC,0.0963
13,AAACTTCC,-0.131
14,AACGCGTT,0.06
15,GTTCCCCA,-0.0821
16,TAGGAACA,-0.0743
17,GATGTGAA,0.131
18,AAACGAAA,0.191
19,AAGCTCAG,-0.0554
20,TAAGCTCA,-0.153
21,CGTTTGAG,0.134
22,CCACACGA,-0.178

row,Sequence,PBM E-score
1,GAACTTCC,-0.274
2,AGATATCA,0.198
3,TGGTATAA,0.21
4,CATAACGC,0.189
5,CATAGCGC,0.151
6,ACCCTTAT,0.0392
7,CCCCCGGA,-0.355
8,AATCGCGC,0.134
9,AAAATTCG,0.22
10,CGCGGTGA,0.135
11,GAAGCAAC,-0.0363
12,AACGCGTC,0.0448
13,AAAACATC,0.195
14,CAACAGAG,-0.0105
15,GCGAAATA,0.064
16,CCATACCC,-0.157
17,CGGAGACA,-0.0524
18,CTGTGGGC,-0.0905
19,GGCACCGA,0.0149
20,CTGGGAGC,-0.361
21,AGGAGGGC,-0.3
22,CCATTCCA,-0.0676

row,Sequence,PBM E-score
1,ACTGTATG,-0.0381
2,CGGCCAGA,-0.0582
3,ACGGCTAG,0.0922
4,GGTGACTA,0.159
5,CCTGATGC,0.0754
6,AACCCATT,-0.0193
7,AGGTGACG,0.452
8,AAGAGTCG,0.046
9,CCCGAGAA,-0.159
10,ATACCCAG,-0.246
11,ATTGAACA,-0.0356
12,CACGTCAC,0.489
13,GGGATCCA,-0.109
14,CGTGTAGA,0.107
15,CAATATAA,0.312
16,TGCGAGCA,-0.143
17,CGTACGGC,0.254
18,ATATAACG,0.267
19,CGAAGCCC,-0.183
20,GGCCACAA,-0.0219
21,AAGCAGTG,0.0603
22,GAAACGGA,0.121

row,Sequence,PBM E-score
1,CGCAGGCC,-0.128
2,CGCAGCGA,-0.119
3,CGCGCGTC,0.167
4,ATTGTCGC,0.0295
5,ATATGAGG,-0.0432
6,CCCCGCAG,-0.275
7,CCTCTATA,-0.0674
8,ACGAAAAA,0.296
9,GGGTCCCA,-0.228
10,CCGGCACG,-0.1
11,CGGCTAAG,0.00043
12,AAAGCTAG,-0.227
13,CTCGAGGC,-0.0847
14,CATGGACG,0.0763
15,CGCGCCGC,0.326
16,CTGTGCCA,-0.147
17,CGCTCCCG,-0.159
18,ACCAACCC,-0.0564
19,ACGTCGGA,-0.0746
20,ACAGCTGA,0.0339
21,AGAATTAT,0.142
22,AACGCGTG,0.078
